The whole screen tested about 150,000 compounds, of which about 540 (0.36%) showed an effect of 50% or more. The list shows a part of the results.

This experiment concerns Plasmodium falciparum. The experiment can be described thus: Primary screen in NF54 nanoGlo assay, in single point, at 2uM, 72h; a lower Z score goes with more inhibition. Format: functional, Erythrocyte. Conditions: timepoint 72 hour.
For the compound `Cc1n[nH]c(C)c1-c1ccc(C(F)(F)CN)cc1`, the “% Inhibition” value is given as 12% and the Z score was -1.78.

For the compound `Cc1c(CNC2CCN(c3ccc(CC(=O)N4CCC(O)CC4)cc3)CC2)cnn1C`, the “% Inhibition” value is -10% and the Z score worked out at 1.78.

As to `Nc1c(F)cccc1CN1CCC(Oc2ncccc2F)CC1`, the “% Inhibition” value was 4% and the Z score is reported as -0.82.

`N#Cc1ccccc1-c1cccc(C(=O)N2CCC[C@H](CN3CCCC3)C2)c1`: the “% Inhibition” value is 2% and the Z score is listed as -0.33.

Regarding `CCN1CCN(C(=O)c2ccc(N3CCC(NCc4nc5cc(F)ccc5[nH]4)CC3)cc2)CC1`, the “% Inhibition” value is -7% and the Z score stood at 1.3.

On to `Clc1ccc(-c2noc3ncnc(N(CCCN4CCOCC4)Cc4ccco4)c23)cc1`, for which the “% Inhibition” value was -12% and the Z score turned out to be 2.05.

Take `N#Cc1ccc(CNC2CCN(Cc3ccccc3F)CC2)cc1`: the “% Inhibition” value was -6% and the Z score worked out at 1.03.

Consider `COC(=O)CCC1CN(C2CCN(C)CC2)CCC1N1CCN(C)CC1` (centres undefined), for which the “% Inhibition” value was -11% and the Z score is 1.99.

For the compound `O=C(Nc1cccc(CN2CCCCC2)c1)C1CN2CCCN1CC2` (centres undefined), the “% Inhibition” value was -7% and the Z score came out at 1.31.

For the compound `Cc1ccc(CNc2nc(CN3CCCC[C@@H]3CCO)nc3ccccc23)cc1`, the “% Inhibition” value was -5% and the Z score is 0.81.

For `O=C(Cc1cc2ccccc2[nH]c1=O)Nc1cc(Cl)ccc1N1CCCCC1`, the “% Inhibition” value is recorded as -1% and the Z score was 0.18.

For `CN(C)CCCN=C(N)Nc1ccccc1`, the “% Inhibition” value is on record as -3% and the Z score is 0.65.

For `N#Cc1ccc(C(F)(F)F)c(NCCc2nnc[nH]2)c1`, the “% Inhibition” value was -4% and the Z score worked out at 0.77.

Consider `Cc1ccc2nc(Nc3ccc(N(C)C)cc3)c(Nc3ccc(N(C)C)cc3)nc2c1`, for which the “% Inhibition” value is recorded as 13% and the Z score was -2.26.

For the compound `Nc1nc(NCc2ccc(N3CCOCC3)cc2)c2cn[nH]c2n1`, the “% Inhibition” value is -8% and the Z score worked out at 1.41.

Regarding `Cc1cc2c(cc1CN1CCN(C3CCNCC3)C[C@@H](O)C1)OCO2`, the “% Inhibition” value turned out to be 3% and the Z score is given as -0.64.

With `O=C(N[C@@H]1CCC[C@H]1OCc1ccccc1)[C@@H]1CCCN1C1CCNCC1`, the “% Inhibition” value is -9% and the Z score is 1.48.

With `Fc1cc(CCNc2nc(C(F)(F)F)nc3ccccc23)c2c(c1)COCO2`, the “% Inhibition” value was -7% and the Z score is reported as 1.2.

Take `O=C(c1cc(-c2ccc(F)cc2)n[nH]1)N1CCN(c2nc(-c3ccsc3)cs2)CC1`: the “% Inhibition” value is 0% and the Z score was -0.04.

Turning to `C[C@H](NC(=O)c1nnc2ccccc2c1O)c1cccc(N2CCCC2)c1`, the “% Inhibition” value is recorded as -1% and the Z score was 0.17.

With `NC(=O)c1n[nH]c2ccc(NC(=O)c3cncc(-c4ccccc4)c3)cc12`, the “% Inhibition” value is on record as 13% and the Z score is listed as -2.65.

Turning to `c1cnc(OC2CCN(c3nccnc3OC3CCC3)CC2)cn1`, the “% Inhibition” value is on record as 0% and the Z score is 0.06.

Consider `CCCOc1ccccc1-c1nnc(NCC2(O)CCN(C)CC2)o1`, for which the “% Inhibition” value is recorded as -6% and the Z score is reported as 0.93.

As to `Cc1nc2ccc(C(=O)NC[C@H]3CCCN3c3nc4ccccc4o3)cc2s1`, the “% Inhibition” value is given as -3% and the Z score is 0.51.

With `c1cc2c(cc1N1CCC(NCCCc3nnn[nH]3)CC1)OCO2`, the “% Inhibition” value is given as 21% and the Z score was -3.77.

In the case of `Cn1ncc(N2CC[C@H](CNc3ncc(F)c(N4CCOCC4)n3)C2)cc1=O`, the “% Inhibition” value is -5% and the Z score is 0.9.

For the compound `COCC(C)(C)N(Cc1ccccc1)C(=O)c1ccc2nnnn2c1`, the “% Inhibition” value is listed as -2% and the Z score was 0.36.

Regarding `COCCNc1cc(-c2ccnc(OC)c2C#N)c2cc[nH]c2n1`, the “% Inhibition” value is reported as -5% and the Z score is 0.96.

For `CN(C)C(=O)C1CCCC(NC(=O)c2ncn(-c3ccccc3)n2)C1` (centres undefined), the “% Inhibition” value is on record as -4% and the Z score is given as 0.8.

On to `Cc1c(Cl)cccc1N1CCCN(c2ccnc(N3CCOCC3)n2)CC1`, for which the “% Inhibition” value is given as -5% and the Z score was found to be 0.92.

In the case of `c1ccc(CCN2CCC(NCCc3ncc[nH]3)CC2)cc1`, the “% Inhibition” value is reported as 6% and the Z score is listed as -1.

As to `COc1ccc(N2CCN(CCCNc3nc4ccccc4o3)CC2)cc1`, the “% Inhibition” value was -11% and the Z score is reported as 1.74.

Turning to `CCCC(=O)NC1(C(F)(F)F)CCN(C(=O)OC(C)(C)C)CC1`, the “% Inhibition” value came to 1% and the Z score is -0.1.

As to `COC1CN(c2ccc(NS(=O)(=O)CCOc3ccccc3)cc2)C1`, the “% Inhibition” value is listed as -10% and the Z score came to 1.79.

On to `CCCCN1CCOC[C@H]1C(=O)NC1CCN(c2cc(C)nc(C)n2)CC1`, for which the “% Inhibition” value is given as -9% and the Z score stood at 1.49.

For `COc1ccc(CNCCc2c[nH]cn2)c(OC[C@@H](O)CN2CCCC2)c1`, the “% Inhibition” value is given as 1% and the Z score is listed as -0.25.

On to `O=C(c1[nH]nc2ccccc12)N1CC[C@@]2(C1)NCc1ccccc1N=C2NC1CCCC1`, for which the “% Inhibition” value is -1% and the Z score is listed as 0.29.

Turning to `Nc1ncc(-c2ccc(C(=O)NC3(CN4CCCC4)CCCCC3)cc2)cn1`, the “% Inhibition” value is given as -7% and the Z score stood at 1.51.

Turning to `Cc1cc(O)c(Cl)cc1-c1ccc2ncnc(N)c2c1`, the “% Inhibition” value was -5% and the Z score came out at 0.82.

Turning to `c1cnc(-c2nc(CCNc3ccc4cc[nH]c4n3)cs2)nc1`, the “% Inhibition” value was -5% and the Z score was found to be 0.88.

Turning to `CC[C@@H](NC(=O)c1oc2c(C)ccc(C)c2c1C)C(N)=O`, the “% Inhibition” value is given as -1% and the Z score is recorded as 0.21.

For `CCNc1ccnc(NC[C@H]2CCCN(C3CCCCC3)C2)n1`, the “% Inhibition” value amounted to 2% and the Z score is on record as -0.35.

`CCNc1nc(NCC)nc(Nc2ccc(Oc3ccccc3)cc2)n1`: the “% Inhibition” value was 2% and the Z score is on record as -0.31.

In the case of `CN1C2CCC1CC(N1CCN(C(=O)[C@H]3C[C@@]34CCOc3ccc(F)cc34)CC1)C2` (some centres undefined), the “% Inhibition” value was -5% and the Z score is recorded as 0.81.

Take `Cc1cccc(-c2cccc(N3CCC(NC[C@H]4CCC(=O)N4)CC3)c2)c1`: the “% Inhibition” value amounted to 1% and the Z score is -0.25.

Regarding `CCN1CCCCC1CNc1cc(N2CCCC2C(N)=O)ncn1` (centres undefined), the “% Inhibition” value is -10% and the Z score is 1.73.

Take `N#Cc1nccnc1Nc1ccc(Oc2ccccc2Cl)cc1`: the “% Inhibition” value was -7% and the Z score was found to be 1.31.

On to `O[C@@H](CNc1nc2ccccc2s1)c1ccc2ccccc2c1`, for which the “% Inhibition” value was -4% and the Z score stood at 0.64.

As for `O=C(c1csc(Nc2ccccn2)n1)N1CCCN(CC2CCC2)CC1`, the “% Inhibition” value was -8% and the Z score amounted to 1.49.

On to `O=C(O)C1CCC(C(=O)NCc2cnc3ccccc3c2)C1` (centres undefined), for which the “% Inhibition” value is -1% and the Z score was determined as 0.1.

With `COc1cccc(-c2cc3[nH]c4c(c(=O)n3n2)CCC4)c1`, the “% Inhibition” value was -3% and the Z score is reported as 0.44.

`C[C@H](O)Cn1cnc(-c2ccccc2)c1-c1ccccc1-c1ccco1`: the “% Inhibition” value stood at 10% and the Z score is reported as -2.07.

`C[C@@H](CCNC(=O)N(Cc1ccc2[nH]ccc2c1)C1CC1)N1CCN(C)CC1`: the “% Inhibition” value is recorded as -1% and the Z score came to 0.2.

`O=C(Nc1ccc2scnc2c1)NC1CCN(Cc2cccc(O)c2)CC1`: the “% Inhibition” value was -5% and the Z score is on record as 0.97.

Regarding `c1cc2ccc(CN3CCC(OCCc4noc(C5CCOCC5)n4)CC3)cc2[nH]1`, the “% Inhibition” value is listed as -1% and the Z score worked out at 0.09.

Consider `c1cc(N2CCNCC2)ccc1-c1ccc2c(c1)OCC2`, for which the “% Inhibition” value is -7% and the Z score came out at 1.24.

Regarding `Cc1cnccc1OC1CCN(c2cc(N3CCC[C@H](CO)C3)ncn2)CC1`, the “% Inhibition” value was -11% and the Z score came out at 2.22.

(Values after ChEMBL document CHEMBL5308541, “MAIP: An Open-Source Tool to Enrich High-Throughput Screening Output and Identify Novel, Druglike Molecules with Antimalarial Activity” (ACS Med Chem Lett, 2023).)
